# Results as given in the supplement of paper PMC8728848.
# The sample as a whole holds a higher share of the strongest signals than the screen did.
# Assays:
# Test in all cases: glycan array binding signal (z-score within array); higher = stronger binding
# Settings in all cases: glycan notation: IUPAC condensed, linker removed
# [1] = test system: Neu5Ac(a2-6)Gal(b1-4)GlcNAc(b1-3)Gal(b1-4)GlcNAc(b1-3)Gal(b1-4)GlcNAc
# Outline: (§1)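 Glycan array data were curated from 3228 arrays in the Consortium for Functional Glycomics database and kept only where the protein sequence was available. Glycan names were converted to IUPAC-condensed notation, and columns mapping to the same glycan were averaged. The binding signal is a within-array Z-score, averaged across arrays of the same protein sequence at different concentrations or buffers and across linkers. Negative Z-scores can be read as non-binding.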
# [2] = test system: Neu5Ac(a2-6)Gal(b1-4)GlcNAc6S
# Outline: as §1
# Neu5Ac(a2-6)Gal = test system: Neu5Ac(a2-6)Gal
# Outline: as §1
# [3] = test system: Neu5Ac(a2-6)Gal(b1-4)GlcNAc(b1-2)Man(a1-6)[Gal(b1-4)GlcNAc(b1-2)Man(a1-3)]Man(b1-4)GlcNAc(b1-4)GlcNAc
# Outline: as §1
# [4] = test system: Neu5Ac(a2-6)Gal(b1-4)GlcNAc(b1-3)Gal(b1-4)GlcNAc
# Outline: as §1
# [5] = test system: Neu5Ac(a2-6)Gal(b1-4)GlcNAc(b1-3)GalNAc
# Outline: as §1
# [6] = test system: Neu5Ac(a2-6)GalNAc(b1-4)GlcNAc
# Outline: as §1
# [7] = test system: Neu5Ac(a2-6)Gal(b1-4)GlcNAc(b1-3)Gal(b1-4)[Fuc(a1-3)]GlcNAc(b1-3)Gal(b1-4)[Fuc(a1-3)]GlcNAc
# Outline: as §1
# [8] = test system: Neu5Ac(a2-6)Gal(b1-4)GlcNAc(b1-2)[Neu5Ac(a2-6)Gal(b1-4)GlcNAc(b1-6)]Man(a1-6)[Neu5Ac(a2-6)Gal(b1-4)GlcNAc(b1-2)Man(a1-3)][GlcNAc(b1-4)]Man(b1-4)GlcNAc(b1-4)GlcNAc
# Outline: as §1
# [9] = test system: Neu5Ac(a2-6)Gal(b1-4)GlcNAc
# Outline: as §1
# Neu5Ac(a2-6)Gal(b1-4)Glc = test system: Neu5Ac(a2-6)Gal(b1-4)Glc
# Outline: as §1
# [10] = test system: Neu5Ac(a2-6)Gal(b1-4)GlcNAc(b1-2)Man(a1-3)[Neu5Ac(a2-6)Gal(b1-4)GlcNAc(b1-2)Man(a1-6)]Man(b1-4)GlcNAc(b1-4)GlcNAc
# Outline: as §1
# [11] = test system: Neu5Ac(a2-6)Gal(b1-4)GlcNAc(b1-2)Man(a1-3)[Neu5Ac(a2-6)Gal(b1-4)GlcNAc(b1-2)Man(a1-6)]Man(b1-4)GlcNAc(b1-4)[Fuc(a1-6)]GlcNAc
# Outline: as §1
# [12] = test system: Neu5Ac(a2-6)Gal(b1-4)GlcNAc(b1-2)Man(a1-6)Man(b1-4)GlcNAc(b1-4)GlcNAc
# Outline: as §1
# [13] = test system: Neu5Ac(a2-6)Gal(b1-4)GlcNAc(b1-2)Man(a1-6)[Man(a1-3)]Man(b1-4)GlcNAc(b1-4)GlcNAc
# Outline: as §1
# [14] = test system: Neu5Ac(a2-6)Gal(b1-4)GlcNAc(b1-3)Gal(b1-4)GlcNAc(b1-6)[Gal(b1-3)]GalNAc
# Outline: as §1
# [15] = test system: Neu5Ac(a2-6)Gal(b1-4)GlcNAc(b1-2)[Neu5Ac(a2-6)Gal(b1-4)GlcNAc(b1-4)]Man(a1-3)[GlcNAc(b1-4)][Neu5Ac(a2-6)Gal(b1-4)GlcNAc(b1-2)[Neu5Ac(a2-6)Gal(b1-4)GlcNAc(b1-6)]Man(a1-6)]Man(b1-4)GlcNAc(b1-4)GlcNAc
# Outline: as §1
# [16] = test system: Neu5Ac(a2-6)Gal(b1-4)GlcNAc(b1-3)Gal(b1-4)GlcNAc(b1-2)Man(a1-3)[Neu5Ac(a2-6)Gal(b1-4)GlcNAc(b1-3)Gal(b1-4)GlcNAc(b1-2)Man(a1-6)]GalNAc
# Outline: as §1
# [17] = test system: Neu5Ac(a2-6)Gal(b1-4)GlcNAc(b1-6)GalNAc
# Outline: as §1
# [18] = test system: Neu5Ac(a2-6)Gal(b1-4)GlcNAc(b1-6)[Gal(b1-3)GlcNAc(b1-3)]Gal(b1-4)Glc
# Outline: as §1
substance,measurement,setting,value
CLEC-2 (Homo sapiens) (chain not printed),glycan array binding signal (z-score),[1],-0.536
same,glycan array binding signal (z-score),[2],-0.144
NCAM1 (Homo sapiens) (chain not printed),glycan array binding signal (z-score),Neu5Ac(a2-6)Gal,0.518
M-Ficolin (Homo sapiens) (chain not printed),glycan array binding signal (z-score),[3],-0.337
same,glycan array binding signal (z-score),[4],-0.228
same,glycan array binding signal (z-score),[5],0.198
same,glycan array binding signal (z-score),[6],-0.068
H-Ficolin (Homo sapiens) (chain not printed),glycan array binding signal (z-score),[1],1.29
same,glycan array binding signal (z-score),[7],-0.303
Gal 3 (Homo sapiens) (chain not printed),glycan array binding signal (z-score),[8],-0.083
same,glycan array binding signal (z-score),[4],0.622
same,glycan array binding signal (z-score),[9],-0.294
M-Ficolin Y271F (Homo sapiens) (chain not printed),glycan array binding signal (z-score),[4],-0.445
same,glycan array binding signal (z-score),Neu5Ac(a2-6)Gal(b1-4)Glc,-0.077
Gal 8 long (Homo sapiens) (chain not printed),glycan array binding signal (z-score),[9],-0.32
same,glycan array binding signal (z-score),Neu5Ac(a2-6)Gal,-0.158
Siglec-2 (Homo sapiens) (chain not printed),glycan array binding signal (z-score),[10],5.85
same,glycan array binding signal (z-score),[3],0.022
same,glycan array binding signal (z-score),[1],3.68
same,glycan array binding signal (z-score),[2],13
M-Ficolin A256V (Homo sapiens) (chain not printed),glycan array binding signal (z-score),[3],-0.118
Gal 8-short (Homo sapiens) (chain not printed),glycan array binding signal (z-score),[2],-0.667
M-Ficolin G221F (Homo sapiens) (chain not printed),glycan array binding signal (z-score),[3],-0.154
same,glycan array binding signal (z-score),[7],-0.18
same,glycan array binding signal (z-score),Neu5Ac(a2-6)Gal,-0.136
Thrombomodulin Extracellular (Homo sapiens) (chain not printed),glycan array binding signal (z-score),[11],0.403
same,glycan array binding signal (z-score),[12],2.06
L-Ficolin (Homo sapiens) (chain not printed),glycan array binding signal (z-score),Neu5Ac(a2-6)Gal(b1-4)Glc,-0.476
Galectin-8 C-terminal CRD (Homo sapiens) (chain not printed),glycan array binding signal (z-score),[2],-0.265
M-Ficolin G221F A256V (Homo sapiens) (chain not printed),glycan array binding signal (z-score),[10],-0.284
Meso764 (Homo sapiens) (chain not printed),glycan array binding signal (z-score),[10],0.293
same,glycan array binding signal (z-score),[13],0.299
same,glycan array binding signal (z-score),[14],-0.641
same,glycan array binding signal (z-score),[7],-0.228
same,glycan array binding signal (z-score),Neu5Ac(a2-6)Gal,-0.302
Collectin K1 (Homo sapiens) (chain not printed),glycan array binding signal (z-score),[6],-0.039
same,glycan array binding signal (z-score),Neu5Ac(a2-6)Gal,-0.151
MBP (Homo sapiens) (chain not printed),glycan array binding signal (z-score),[15],-0.219
same,glycan array binding signal (z-score),[16],0.503
same,glycan array binding signal (z-score),[17],0.543
same,glycan array binding signal (z-score),[18],-0.335
